In the CheMixHub viscosity set:

Which viscosity (298.15 K, 101.33 kPa) does the source give for `CCCCCCCCC` here?
The viscosity was 0.655 ± 0.017 mPa·s [study A] and 0.65 ± 0.017 mPa·s [study B] and 0.66 ± 0.017 mPa·s, 0.66 ± 0.0089 mPa·s [study C] and 0.652 ± 0.005 mPa·s [study D] and 0.659 ± 0.011 mPa·s [study E] and 0.661 ± 0.005 mPa·s [study F] and 0.656 ± 0.012 mPa·s [study G].

What about the viscosity (303.15 K, 101.33 kPa) of the same molecule?
Its viscosity is 0.608 ± 0.016 mPa·s [study A] and 0.612 ± 0.005 mPa·s [study B] and 0.62 ± 0.011 mPa·s [study C] and 0.618 ± 0.004 mPa·s [study D] and 0.613 ± 0.012 mPa·s [study E].

And the viscosity (308.15 K, 101.33 kPa)?
The viscosity was 0.577 ± 0.016 mPa·s [study A] and 0.569 ± 0.015 mPa·s [study B] and 0.574 ± 0.004 mPa·s [study C] and 0.58 ± 0.011 mPa·s [study D] and 0.581 ± 0.004 mPa·s [study E] and 0.575 ± 0.011 mPa·s [study F].

With `CC(=O)c1ccccc1` as the molecule, how does the viscosity (298.15 K, 101 kPa) read?
The viscosity was 1.666 ± 0.08 mPa·s [study A] and 1.638 ± 0.063 mPa·s [study B] and 1.645 ± 0.043 mPa·s [study C] and 1.674 ± 0.026 mPa·s [study D].

What about the viscosity (308.15 K, 101 kPa) of the same molecule?
Its viscosity is 1.394 ± 0.043 mPa·s [study A] and 1.415 ± 0.067 mPa·s [study B] and 1.351 ± 0.012 mPa·s [study C] and 1.351 ± 0.019 mPa·s [study D].

± gives the uncertainty stated by the source. A number of entries come with more than one value. They are shown here; other results are not. The source may hold further records. Values that stand side by side are repeats across runs, samples, wells, individuals or studies. What stands in brackets tells the records apart. Letters count within one entry.
